The list shows a part of the results.
Tested on: T1, Caupolican (Caup) homeodomain DNA-binding domain
T1 sequence: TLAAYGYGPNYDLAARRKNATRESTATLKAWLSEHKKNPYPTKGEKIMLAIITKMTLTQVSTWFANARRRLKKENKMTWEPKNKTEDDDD
Test: PBM E-score (8-mer, recovered from the published 9-mer minima) (E-score (dimensionless, -0.5 to 0.5)); Drosophila protein; higher = stronger relative binding preference, active = 0.31 or more
Method: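 Protein binding microarray (PBM): in vitro transcribed/translated Caupolican (Caup) homeodomain DNA-binding domain (residues 214-303) applied at 100 nM to a universal 8-mer PBM array (Agilent AMADID 015681). The 8-mer enrichment score (E-score, range -0.5 to 0.5) was computed, and each 9-mer score is the minimum E-score of its two constituent 8-mers. The E-score is the same for a 9-mer and its reverse complement; 0.31 is the stated binding threshold.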

PBM E-score, ≥ 0.0143:
ACGGCGTA

PBM E-score, ≥ -0.0191:
ACCGAGAT

PBM E-score, active:
ATGAACAT 0.326

PBM E-score, ≥ -0.0867:
AAGGGCGT

PBM E-score, ≥ -0.0903:
TCCAGGGA

PBM E-score, ≥ 0.0585:
AACTCTAG

PBM E-score, ≥ 0.172:
AACAGACT

PBM E-score, inactive:
CATTAAAG 0.131
CGCTAGAC -0.0864
CGCCGGCG -0.219
CTTAAAAC 0.0539
GGGGAAGA -0.15
ATCGCTAG -0.00841
TGCGAACA 0.217
AATGACGG 0.00505
CACAGGGG -0.17
CACTGTGC -0.0261
AAAATGAG 0.0045
CTGGTAAC 0.115
CCTGTCGA 0.0635
AGTTGCCA -0.152
CTTCCCTA -0.19
ACTCCAAA -0.00632
ACCATCCC -0.0727
GGGACCCC -0.285
AAGGAGGT -0.099
CTGCTAAC -0.0204
ACCACACC -0.116
CACCTTCA -0.029
ACCCGTGA -0.0895
AGCCGCTG -0.187
AGGTCGGC -0.121
AGATCCCT -0.128
AGCGCCAT -0.171
ACGGAGTG -0.0735
CAAGTACC 0.159
ATATGCGG 0.0383
AGCCGCTC -0.154
CTCCTCGC -0.182
AAATCGGT -0.00424
ACTCGAGC -0.0161
CCCTTCAA -0.0942
AAACTCGT 0.0614
CCCCTGAC -0.0543
GATTCTCC -0.19
ATGACCGG -0.05
TATGTGGA 0.0929
AGTATTTC 0.082
CACTCAGA -0.0336
AGCAGGAC 0.0602
GTGGATTA 0.0344
GTGGCCGA -0.15
CAGTTAGC -0.126
AAACTGAG -0.0599
AACGATCA 0.0876
CCCGTACC -0.121
ACTAGGAT 0.133
AGCTAGGA -0.0268
AAGGGGAA -0.113
GCACCCAC -0.108
ATAAGCGG -0.0674
AATCTGGG -0.153
CCCCGAAC -0.175
CAGTGGTA 0.0762
ACAGGGGC -0.0393
AAGACAGT 0.0277
AGTAGAAG -0.055
AAGATACC 0.0465
AGACGTAA 0.037
AACCGAAG -0.0262
CTCCTGAA -0.166
CGGCTGTA -0.0275
GCCCTGCA -0.173
GCTAGACA 0.0882
CCTGCGAG -0.197
GGATAGAA -0.0396
CACTCTCG -0.0359
CATTTTCG -0.00917
AGGTAACG 0.0252
ATTTTAAG 0.00065
TGATTAAA 0.125
ACAGGCTA 0.0551
CATCGCCC -0.0497
CTAAACTA 0.11
CGGTTACA 0.183
CGTGATAG -0.0553
CATTACCC -0.0413
CTCGGTCC -0.164
CCAGACAC 0.05
TCGAATAA 0.0696
CGCCCAAG -0.21
CCCGTTTC -0.132
AGAAAGAG -0.0152
GAACAGTC 0.0395
ATCTTGGC -0.0175
CAAACTAG 0.116
CAGGATAG 0.0126
AGGTGCCC -0.234
AGTGAAAG -0.081
ATTCTCGC -0.0319
CAAGGTCA 0.00506
CCATGCCA -0.0932
AAGTAATC 0.231
GATACGTA 0.0715
ATCTTTCC -0.0323
ATGTGTGA 0.134
GCTCGGGA -0.244
CGGGAGAC -0.117
AACATATC 0.303
ATCCCGTG 0.172
ACAGGGCG -0.0411
CACACTCC -0.0969
AAGGGCGA -0.114
AGGAGCTG -0.165
AGCACCCT -0.0748
GTTATGTA 0.276
ACTCAGGC -0.105
CCTGTCAA 0.172
CTGAATGC -0.146
GGCATGGA -0.0635
ATCCATTG 0.0117
AACCTCGA -0.0635
CTAAGAGC -0.16
AGCAAGCT -0.0378
AATCAACC -0.0152
AGAAGTGC -0.107
AAAAGTAT 0.121
AAGGAACC -0.00983
GTGTTCTA 0.206
ATTTGAGA 0.048
CGAATCAC 0.00894
TAATGGAA 0.0857
AAAATACC 0.0751
ACGCTGAG -0.175
ACTCACCA 0.0217
CGATCCAG -0.13
GTTCGGCA 0.012
TAGACTGA -0.0421
CTTCTAAA 0.0632
ACGATGAT 0.0637

PBM E-score, ≥ -0.147:
AGCGCCAG

PBM E-score, ≥ 0.0625:
TAGGAGAA

PBM E-score, ≥ -0.0916:
AAGACCCC
